Laboratory results taken from PubChem BioAssay AID2675 (National Center for Advancing Translational Sciences (NCATS), 2010).
About 100 (0.036%) of roughly 280,000 compounds were called active. This list was built around the results that the source calls inconclusive (neither active nor inactive); the mix of calls is not that of the screen. Calls follow the shape of the dose curve; as a rule, active = well fitted inhibition curve with a large enough effect in the signal ratio, with a control signal flat (not every such curve was filed as active); inconclusive = small, poorly fitted or top-dose-only effect, or effect the other way, or a change in a side signal; inactive = no such curve, though single readings can be large or run the other way; the % refers to the signal ratio. Potencies beside an inconclusive call are fits to weak or partial responses and may not hold up. A note “side channel” means that the fit belongs to a control or component signal, not to the main read-out.

biological target: Muscleblind-like protein 1 (Homo sapiens) (UniProt Q9NR56); assay: qHTS Assay for Inhibitors of MBNL1-poly(CUG) RNA binding; settings: TR-FRET MBNL1-His/biotin-(CUG)12 binding, 665/545 ratio; activity change, negative = inhibition: at 57.5 µM (top of the series)
Sequence of UniProt Q9NR56 (Q9NR56 whole entry, looked up): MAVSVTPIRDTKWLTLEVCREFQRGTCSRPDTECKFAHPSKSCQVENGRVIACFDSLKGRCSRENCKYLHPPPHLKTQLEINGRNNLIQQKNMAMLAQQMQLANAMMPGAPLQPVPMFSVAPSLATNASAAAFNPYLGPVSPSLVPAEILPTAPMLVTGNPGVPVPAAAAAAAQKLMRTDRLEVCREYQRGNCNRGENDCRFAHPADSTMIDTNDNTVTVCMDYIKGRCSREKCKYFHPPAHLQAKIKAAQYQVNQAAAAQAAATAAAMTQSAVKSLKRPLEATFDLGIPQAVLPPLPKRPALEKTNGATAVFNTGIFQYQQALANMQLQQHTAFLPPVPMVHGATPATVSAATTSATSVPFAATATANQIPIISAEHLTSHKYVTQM
Summary of the method: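 Compound titration spanned 92 nM–58 uM against the MBNL1-His/biotin-(CUG)12 complex. After 60 min at room temperature with 5 nM streptavidin-XL665 and 0.055 ng/ul terbium anti-His, ratiometric 665/545 nm emission (Ex 340 nm) normalized to controls.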
% is scaled to controls: 0 for no effect and ±100 for the full control effect; potency is read from the fitted curve at half-maximal effect; tags tell the direction and shape of the fitted curve or compound fluorescence and quenching.

SMILES | Potency | activity change, negative = inhibition
O=C(OCC(=O)c1c[nH]c2ccccc12)c1ccc([N+](=O)[O-])s1 | inconclusive: 17.8 µM [quencher, side channel, partial curve] | –
COc1c(C)cccc1C(=O)NC(=S)Nc1ccccc1N1CCCC1 | – | inactive: 1.33%
Cc1nn(Cc2ccc([N+](=O)[O-])cc2)c(=O)n1-c1ccccc1 | inconclusive: 31.6 µM [quencher, side channel, partial curve] | –
CC1CCCN(Cc2c(O)ccc3c(=O)c(-c4nc5ccccc5s4)c(N)oc23)C1 (centres undefined) | – | inactive: -15.4%
Cn1c(=O)cc(OCCCC(=O)N2CCCCC2)c2ccccc21 | – | inactive: -13.9%
O=C1N=C(N2CCCC2)S/C1=C\C=C\c1ccccc1 | inconclusive: 12.6 µM [quencher, side channel, partial curve] | –
COc1cc(CNc2ccccc2)c([N+](=O)[O-])cc1OC | inconclusive: 15.8 µM [quencher, side channel, partial curve] | –
COCCN(C(=O)COC(=O)c1cccc2ccccc12)c1c(N)n(Cc2ccccc2)c(=O)[nH]c1=O | inconclusive: 17.8 µM [quencher, side channel, partial curve] | –
CCOC(=O)CSc1nc(N)c(C#N)c(-c2ccc(OCC)cc2)c1C#N | inconclusive: 39.8 µM [fluorescent, single point] | –
COc1ccc(-c2oc3ncnc(NCCCN(C)C)c3c2-c2ccc(OC)cc2)cc1 | inconclusive: 20 µM [quencher, side channel, single point] | –
COc1cccc(C(=O)C2CCCN(Cc3cccn3-c3ccccn3)C2)c1 (centres undefined) | – | inactive: 0.185%
CCN1C(=O)c2cccc3c(NC(=O)c4cccc(N5C(=O)CCC5=O)c4)ccc1c23 | inconclusive: 11.2 µM [quencher, side channel, partial curve] | –
CC(NCc1ccc(OCc2ccc(Cl)cc2)cc1)C(O)c1ccccc1 (centres undefined) | – | inactive: -12.7%
O=c1c2ccccc2nnn1CSc1ccccc1 | – | inactive: 6.1%
O=C(NCc1ccccn1)c1ccc2nc(-c3ccco3)c(-c3ccco3)nc2c1 | inconclusive: 15.8 µM [quencher, side channel, partial curve] | –
Cc1nc2cc(-c3ccccc3)nn2c(C)c1CCC(=O)N1CCN(c2ccccn2)CC1 | – | inactive: -0.847%
O=C(NCc1nc2ccccc2[nH]1)c1cc2ccccc2oc1=O | inconclusive: 10 µM [quencher, side channel, partial curve] | –
CN(C)S(=O)(=O)NCCNc1ccc(C(F)(F)F)cc1[N+](=O)[O-] | inconclusive: 14.1 µM [quencher, side channel, partial curve] | –
O=C1Nc2c(Br)cc(Br)cc2C1(O)N1CCOCC1 (centres undefined) | inconclusive: 12.6 µM [quencher, side channel, partial curve] | –
CCOC(=O)c1c(NC(=O)c2cc(-c3ccc(Cl)s3)nc3ccccc23)sc(C(N)=O)c1C | inconclusive: 15.8 µM [fluorescent, side channel, partial curve] | –

SMILES | Potency | activity change, negative = inhibition
Cn1c(-c2ccc3ccccc3n2)[n+](C)c2ccccc21 | inconclusive: 1.78 µM [quencher, full curve] | –
O=C(/C=C(/c1ccc(Cl)cc1)n1cncn1)c1ccccc1 | inconclusive: 15.8 µM [quencher, side channel, partial curve] | –
CCn1c(-c2cc(OC)ccc2OC)csc1=Nc1c(C)n(C)n(-c2ccccc2)c1=O | inconclusive: 3.98 µM [quencher, side channel, full curve] | –
COC(CNC(=O)c1ccc(N2CCc3ccccc32)c([N+](=O)[O-])c1)OC | inconclusive: 0.141 µM [quencher, side channel, full curve, poor fit] | –
COc1cc(CN2CCCC(C)C2)cc([N+](=O)[O-])c1O (centres undefined) | inconclusive: 39.8 µM [quencher, single point] | –
CCCC(NS(=O)(=O)c1ccc(-c2ccc(=O)[nH]n2)s1)c1cccs1 (centres undefined) | inconclusive: 12.6 µM [quencher, side channel, partial curve] | –
N#C/C(=C\c1c(Oc2ccccc2Cl)nc2ccccn2c1=O)C(=O)NC1CCS(=O)(=O)C1 (centres undefined) | inconclusive: 7.08 µM [quencher, side channel, partial curve] | –
Cc1nc2ccccc2c(=O)n1NC(=O)c1ccc([N+](=O)[O-])cc1Cl | inconclusive: 28.2 µM [quencher, side channel, partial curve] | –
Cc1cc[n+](-c2[nH]c(=O)sc2/C=N/NC([S-])=Nc2ccccc2)cc1C | inconclusive: 3.16 µM [quencher, side channel, partial curve] | –
O=[N+]([O-])c1ccc(NCCCO)c(S(=O)(=O)N2CCOCC2)c1 | inconclusive: 28.2 µM [quencher, partial curve] | –
CC(C)(C)OC(=O)NCCc1nnc(S(=O)(=O)Cc2ccc(Cl)cc2Cl)o1 | – | inactive: -0.959%
O=C(c1noc2c1CCCC2)N1CCCC(N2CCN(c3ccccc3F)CC2)C1 (centres undefined) | – | inactive: -7.41%
CCCN1C=CC(=C2C(=O)c3ccccc3C2=O)C=C1 | inconclusive: 14.1 µM [quencher, side channel, partial curve] | –
O=C(O)c1cc([N+](=O)[O-])cc2c1nnn2O | inconclusive: 8.91 µM [quencher, side channel, partial curve] | –
CC(C)Cn1c(SCC(=O)c2ccc(Cl)s2)nnc1-c1ccco1 | inconclusive: 12.6 µM [quencher, side channel, partial curve, poor fit] | –
COC(=O)c1csc(S(=O)(=O)N2CCOCC2)c1OC | – | inactive: -3.32%
C(=N\Nc1nc(-c2ccccc2)cs1)/c1cccnc1 | inconclusive: 25.1 µM [quencher, side channel, partial curve] | –
Cc1ccc(NC(=O)C2CCN(c3ncnc4c3nc3n4CCCCC3)CC2)nc1 | – | inactive: 0.184%
CC(=O)n1c(C=Nc2ccc(Cl)cc2)c(O)c2ccccc21 | inconclusive: 35.5 µM [quencher, side channel, single point] | –
